± gives the standard deviation of the averaged measurements. The list shows a part of the results.
The sequences below were run on PfAP2-I AP2 domain 3 (GST-tagged) (assay: gcPBM binding intensity (ln(normalized median fluorescence intensity)); higher = stronger DNA binding).
Method in brief: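 Binding of GST-tagged P. falciparum DNA-binding domains, expressed in E. coli and used at about 25 μg on average, was carried out for 1 h in 1× PBS containing 1% milk, 0.2 mg/ml BSA, 0.5% salmon testes DNA and 0.03% Triton X-100. The target was an Agilent 4 × 180k array of primer-extended double-stranded 36-bp intergenic genomic probes plus negative controls, read with Alexa488 anti-GST antibody at 488 nm. Binding intensity is the highest Masliner-normalised natural-log median intensity across replicate spots of either probe orientation.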

In order of rising “gcPBM binding intensity (ln)” value:
1. GGAATGTAGGGTTTTACCAAAATAAAAATAACCATA [XGTACX_negctrl_site492]  7.64 ± 0.61
2. ATAATATTTTCTTCTTATTGAATGCTTTAAATTTAC [CACACA_negctrl_site1273]  7.64 ± 0.81
3. TTAAGAAGTTCTAAATGTACATACATAACCACGTTA [XGTACX_site7514]  7.67 ± 0.57
4. CTTATATATATATCATGTACTTATGTATTTAAGAAT [XGTACX_site3307]  7.71 ± 0.26
5. TTTTTTATTATCAAAACATGCATTTTTTAAATGGAA [TGCATGCA_site557]  7.72 ± 0.62
6. GCATAAGAAAATAATTGTACAATTTACATACATAAA [XGTACX_site8286]  7.73 ± 0.51
7. TAATGAAATATACAGAGTACATTCTGTATATAGGAT [XGTACX_site7691]  7.75 ± 0.46
8. TTGTACGCAAAAAAAAAAAAAAAAAAATTAAAATTT [TGCATGCA_negctrl_site586]  7.77 ± 0.042
9. ATAAAATACCTATAAACACACATATAAACAGACATA [CACACA_site7213]  7.79 ± 0.45
10. CTTTTATTAAAATTCACACACATAAACTTTTATAAA [CACACA_site7027]  7.81 ± 0.48
11. AATATATACAATATATGTACATATATATACACATAT [XGTACX_site4190]  7.88 ± 0.47
12. TATAAATATATATACACACACACATTAATACATATA [CACACA_site3488]  7.9 ± 0.33
13. TAATTTCTTATGTATTGTACAAATAATATATGATAT [XGTACX_site611]  7.91 ± 0.33
14. ACAATAAAAATTTATGCATGTGAATTGAAAAAAAAA [TGCATGCA_site1037]  7.94 ± 0.79
15. AAATAAAACAAACACACACACACATACACAAAAAAA [CACACA_site3849]  8.06 ± 0.35
16. ATATTAGTAACACAGACACACAAAAAAAAAAAAAAA [CACACA_site2176]  8.09 ± 0.69
17. TTTTTCTCTTTAAGGTGTACAATAATACAGTAACCA [XGTACX_site300]  8.32 ± 0.042
18. TTAAACCGTGGGAGCACACACACACCCCCACCCATA [CACACA_site331]  8.53 ± 0.35
19. GGGAAATATTGAAACACACACGAACGCACGTATTTC [CACACA_site6258]  8.79 ± 0.69
20. TATATATTTCGGTGTGCACACTTTTTATTTTTATCC [CACACA_site1726]  9.15 ± 0.67
21. ACAAATAAGTTTTGTAGTACTGTGTATATATATATA [XGTACX_site6901]  9.23 ± 0.47
22. TATATATGTATATATATAAATATATATATATATATA [TGCATGCA_negctrl_site605]  9.4 ± 0.63
23. TATATATATATATGTACACACATATATACCTTTCAT [CACACA_site2679]  9.44 ± 0.45
24. GTTATTGAAAAAATAGTGCAATATAACAAAGTAAAA  11.4 ± 0.52

From the supplement of paper PMC11417369
